# Measured values reported in PubChem BioAssay AID686978 (National Center for Advancing Translational Sciences (NCATS), 2013).
# The campaign covered roughly 420,000 compounds. About 64,000 (15%) were called active. This list was built around the results that the source calls inconclusive (neither active nor inactive); the mix of calls is not that of the screen. The call rests on the fitted dose curve; in most records, active means well fitted inhibition curve with a large enough effect; inconclusive means small, poorly fitted or top-dose-only effect; inactive means flat fitted curve, though single readings scatter. Potencies of inconclusive entries are left out as doubtful fits.
# Experiment: qHTS for Inhibitors of human tyrosyl-DNA phosphodiesterase 1 (TDP1): qHTS in cells in absence of CPT; further: nearly all actives have a fitted effect of over 55% in size
# Conditions: DT40 Tdp1-/- hTDP1 cells, no CPT, ATP luminescence, 48 h; activity change, negative = growth inhibition: at 46.2 µM (top of the series) unless noted
# Procedure, shortened: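 Chicken DT40 Tdp1-/- cells stably complemented with human TDP1 were seeded at 400 cells/well with DMSO in place of 20 nM camptothecin. After compound pinning, cells grew at least 48 hr at 37 °C; viability read by CellTiter-Glo luminescence.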
# On the % scale 0 is the no-effect control and ±100 the full control effect; potency means the concentration at half of the fitted maximal effect; tags describe the fitted curve by direction and shape.
SMILES,"activity change, negative = growth inhibition",Potency
COc1cc2c(cc1OC)CC(=O)N(CCCN(C)C[C@H]1Cc3cc(OC)c(OC)cc31)CC2,inactive: -20.3%,
O=C(C[C@H]1CC[C@H]2[C@@H](COC[C@@H](O)CN2C(=O)c2cnccn2)O1)NCc1ccc(Oc2ccccc2)cc1,,"inconclusive [inhibitor, single point]"
NS(=O)(=O)c1cccc(NC(=O)c2cccs2)c1,,"inconclusive [inhibitor, single point]"
CCCCN(C=O)c1c(CC)nc2c(OCc3ccccc3C)cccn12,,"inconclusive [inhibitor, single point]"
O=C1OC/C(=C(/O)c2ccc(Cl)cc2)C1=O,inactive: -22.5%,
Cc1noc2ncnc(Sc3c(Cl)cccc3Cl)c12,,active: 16.4 µM
CCN(CC)C(=O)Cn1cc(C(=O)C(=O)N(CC)C2CCCCC2)c2ccccc21,,"inconclusive [inhibitor, single point]"
CN(Cc1nc2ccccc2c(=O)[nH]1)C(=O)COc1ccccc1Cc1ccccc1,,"inconclusive [inhibitor, single point]"
O=C(CSc1nc2cccnc2n1Cc1ccccc1)NC1CCCCC1,,"inconclusive [inhibitor, partial curve]"
N#C/C(=C/c1cn[nH]c1-c1ccc(Br)cc1)C(=O)O,inactive: 0.395%,
CCOC(=O)C1(C)CCN1C(=O)c1oc2ccccc2c1C (stereo not drawn),,"inconclusive [inhibitor, single point]"
CCN(C(=O)CN1C(=O)NC(c2ccccc2)(c2ccc(C)c(C)c2)C1=O)C1CCCCC1 (stereo not drawn),,"inconclusive [inhibitor, single point]"
CCC(=O)N1CCc2cc(S(=O)(=O)NCCC(=O)NCc3ccc(OC)cc3)ccc21,,"inconclusive [inhibitor, single point]"
Cc1ccc(NC(=O)NN2CCOCC2)cc1,inactive: 14.8%,
CCCCNS(=O)(=O)c1ccc(NS(=O)(=O)c2c(C)cc(C)cc2C)cc1,,"inconclusive [inhibitor, single point]"
COc1ccc(NC(=O)CCOc2ccccc2F)cc1S(=O)(=O)N1CCCCC1,,"inconclusive [inhibitor, single point]"
CCCC(=O)Nc1ccc(C(=O)NNC(=O)c2cccs2)cc1,inactive: 3.4%,
CCCN(C(=O)COC(=O)c1nc2nccc(C)n2n1)C1CCS(=O)(=O)C1 (stereo not drawn),inactive: -19.4%,
O=C(CCN1C(=O)S/C(=C\c2ccccc2)C1=O)N1CCCCC1,,"inconclusive [inhibitor, single point]"
CC(=O)Nc1sc(C)c(C)c1CN1CCN(S(=O)(=O)c2ccccc2)CC1,,"inconclusive [inhibitor, partial curve]"
C/C(=N\NC(=O)Cn1ccc(C(F)(F)F)n1)c1ccco1,inactive: 4.32%,
Cc1ccc2c(Cl)c(C)c(N3CCCC3)nc2n1,,"inconclusive [inhibitor, single point]"
COc1cccc(-c2nc(Nc3ccncc3)c3ccccc3n2)c1,,active: 10.3 µM

SMILES,"activity change, negative = growth inhibition",Potency
CCOC(=O)C(C)Sc1nc2c(cnn2-c2ccc(C)cc2)c(=O)[nH]1 (stereo not drawn),,"inconclusive [inhibitor, single point]"
Cc1ccccc1-c1nc(S(=O)(=O)c2ccc(Cl)cc2)c(NCCN2CCOCC2)o1,,"inconclusive [inhibitor, single point]"
CC(C)CN1Cc2ccccc2Oc2cc(Br)ccc2S1(=O)=O,,"inconclusive [inhibitor, single point]"
CCOC(=O)CNC(=S)N(Cc1ccccc1F)C1CCCCC1,inactive: -25.9%,
CN1CCN(c2nc(-c3ccc(Cl)cc3)nc3ccccc23)CC1,,active: 16.4 µM
CCc1nc2c(OCc3ccc(F)cc3)cccn2c1N(C)C(=O)C(C)C,,"inconclusive [inhibitor, single point]"
COC(=O)C(NC(=O)c1ccccc1Cl)(Nc1ncc(S(=O)(=O)c2ccc([N+](=O)[O-])cc2)s1)C(F)(F)F (stereo not drawn),,"inconclusive [inhibitor, single point]"
CCc1cccc(NC(=O)c2sc3nc4n(c(=O)c3c2C)CCC4)c1,,"inconclusive [inhibitor, single point]"
CCC(c1nnnn1-c1ccc2c(c1)OCCO2)N1CCN(CC)CC1 (stereo not drawn),inactive: -21.8%,
CCCCCN1CC(=O)N2[C@@H](Cc3c([nH]c4ccccc34)C2(C)C)C1=O,,"inconclusive [inhibitor, partial curve]"
CCCc1cc(=O)oc2c(CNc3ccc(OCC)cc3)c(O)ccc12,inconclusive: -17.2% [inhibitor],
COc1ccc(C(C(=O)NCc2ccccc2)N(C(=O)c2snc(C(N)=O)c2N)c2ccccc2OC)cc1 (stereo not drawn),,"inconclusive [inhibitor, partial curve, poor fit]"
O=[N+]([O-])c1ccc(Sc2nccn2Cc2ccccc2)cc1,,"inconclusive [inhibitor, single point]"
CC1CCC(NC(=O)c2ccc(CS(=O)(=O)Cc3ccccc3F)o2)CC1 (stereo not drawn),,"inconclusive [inhibitor, single point]"
CCc1ccc(C(O)(c2ccccc2OC)C(CN2CCOCC2)c2ccccc2)cc1 (stereo not drawn),,"inconclusive [inhibitor, single point]"
Cc1ccc(-c2nc(CCNC(=O)C(=O)Nc3ccc(F)cc3F)cs2)cc1,,"inconclusive [inhibitor, partial curve]"
Cc1ccc(C(=O)CCC(=O)N2CCN(c3ccc(F)cc3)CC2)cc1,,"inconclusive [inhibitor, single point]"
O=C1NC(Cc2ccc(O)cc2)c2nc3cc(Cl)ccc3c(=O)n2-c2ncccc21 (stereo not drawn),,"inconclusive [inhibitor, single point]"
C#Cc1ccc([C@@H]2C=C(C(=O)O)O[C@H](OCC)[C@H]2CCCO)cc1,inactive: 24.1%,
COc1ccc(-c2noc(CCCC(=O)NC3CCCCC3)n2)cc1OC,inactive: -21.9%,
Clc1ccc(Cn2nnc(-c3ccc(N4CCOCC4)cc3)n2)cc1,,"inconclusive [inhibitor, single point]"
O=C(Nc1cccnc1)c1cnc2ccccc2n1,,"inconclusive [inhibitor, single point]"
COc1ccccc1CNC(=O)CCCN1C(=O)CCn2nc(-c3cn(C)c4ccccc34)cc21,,"inconclusive [inhibitor, single point]"

SMILES,"activity change, negative = growth inhibition",Potency
O=C1C(Cc2ccccc2)Nc2ncnc(N3CCOCC3)c2N1Cc1ccc(Cl)cc1 (stereo not drawn),,"inconclusive [inhibitor, single point]"
CC1CCCCN1C(=O)CSc1nnc(-c2ccccc2O)o1 (stereo not drawn),,"inconclusive [inhibitor, partial curve]"
CCN=C1SC(C(=O)Nc2cccc(Br)c2)CC(=O)N1CC (stereo not drawn),,"inconclusive [inhibitor, full curve, poor fit]"
O=C(c1ccccc1)C(Nc1cccc([N+](=O)[O-])c1)c1ccccc1 (stereo not drawn),,"inconclusive [inhibitor, single point]"
Nc1cccnc1-n1nc(C(F)(F)F)cc1C(F)(F)F,inactive: -2.56%,
COc1ccc(O)c(CN2CCCC(C(=O)Nc3cccc(-n4cccn4)c3)C2)c1 (stereo not drawn),,"inconclusive [inhibitor, single point]"
Cc1c(C(=O)Nc2cccc(N(C)S(C)(=O)=O)c2)cccc1[N+](=O)[O-],inactive: -19.7%,
Cc1onc(C(=O)Nc2cccc(C(F)(F)F)c2)c1[N+](=O)[O-],,"inconclusive [inhibitor, single point]"
COC(=O)c1cc(=O)c(O)c2c(O)c(O)ccc2c1,,"inconclusive [inhibitor, single point]"
O=C(Nc1ccc(N2CCCC2)c(Cl)c1)c1ccccc1F,,"inconclusive [inhibitor, partial curve]"
O=C(O)c1cccc2cc(-c3ccccc3)oc(=O)c12,inactive: 12.5%,
CCOC(=O)C1CCCN(S(=O)(=O)c2cc3c4c(c2)CCN4C(=O)CC3)C1 (stereo not drawn),,"inconclusive [inhibitor, single point]"
Fc1ccc(C(c2nnc(-c3ccccc3)o2)N2CCN(c3ccccc3)CC2)c(Cl)c1 (stereo not drawn),,active: 20.6 µM
CSc1nc(-c2ccc(Cl)cc2)nn1C(=O)c1ccco1,,"inconclusive [inhibitor, single point]"
COc1cccc(-c2nc(OC(C)C)c3ccccc3n2)c1,,"inconclusive [inhibitor, single point]"
CC(C)C(=O)Nc1c(C(=O)N2CCN(c3ccccc3F)CC2)oc2ccccc12,,active: 11.6 µM
CCOc1ccc(-n2c(SCC(=O)Nc3ccc4c(c3)OCO4)nc3c(c2=O)SCC3)cc1,inactive: -8.42%,
COc1ccc(NS(=O)(=O)c2cccc(C(=O)N/N=C/c3ccc4c(c3)OCCO4)c2)cc1,,"inconclusive [inhibitor, full curve]"
CCN1C(=O)[C@H]2[C@@H](c3ccc(C(F)(F)F)cc3)N[C@]3(CCCN(CC4CCCCC4)C3=O)[C@H]2C1=O,,"inconclusive [inhibitor, single point]"
COC(=O)C1CCCCN1Cc1nc(N2CCCN(C(C)=O)CC2)c2ccccc2n1 (stereo not drawn),inactive: 1.18%,
Nc1c(NCc2ccccc2)c(=O)[nH]c(=O)n1Cc1ccccc1,,active: 18.4 µM
Cc1ccc(CSc2nc3ccncc3n2Cc2nc(-c3ccc(Cl)cc3)oc2C)cc1,,"inconclusive [inhibitor, single point]"
